Source: the GPR68 mutational scans of Howard et al. (2025)
Scores whose standard error is large were omitted. Not listed are two conditions whose scores span a narrow range. Names with del lack the residues named; names with ins carry added residues between the positions named. For some assays here: How much ogerin was present is not stated here.

B1: GPR68, Q15743 (parent)
chain: MGNITADNSSMSCTIDHTIHQTLAPVVYVTVLVVGFPANCLSLYFGYLQIKARNELGVYLCNLTVADLFYICSLPFWLQYVLQHDNWSHGDLSCQVCGILLYENIYISVGFLCCISVDRYLAVAHPFRFHQFRTLKAAVGVSVVIWAKELLTSIYFLMHEEVIEDENQHRVCFEHYPIQAWQRAINYYRFLVGFLFPICLLLASYQGILRAVRRSHGTQKSRKDQIQRLVLSTVVIFLACFLPYHVLLLVRSVWEASCDFAKGVFNAYHFSLLLTSFNCVADPVLYCFVSETTHRDLARLRGACLAFLTCSRTGRAREAYPLGAPEASGKSGAQGEEPELLTKLHPAFQTPNSPGSGGFPTGRLA

What was measured:
[1] = variants of: B1; test: cAMP reporter score (Enrich2 score, wild type = 0); higher = more signal; HEK293T, FACS bins
[2] = variants of: B1; test: surface expression score (Enrich2 score, wild type = 0); higher = more signal; HEK293T, FACS bins

Variant | cAMP reporter score ([1]; pH 5.5) | cAMP reporter score ([1]; pH 6) | cAMP reporter score ([1]; pH 6, modulator: ogerin) | cAMP reporter score ([1]; pH 6.5, modulator: ogerin) | surface expression score [2]
MGNITADNSSMSCTITHTIHQTLAPVVYVTVLVVGFPANCLSLYFGYLQIKARNELGVYLCNLTVADLFYICSLPFWLQYVLQHDNWSHGDLSCQVCGILLYENIYISVGFLCCISVDRYLAVAHPFRFHQFRTLKAAVGVSVVIWAKELLTSIYFLMHEEVIEDENQHRVCFEHYPIQAWQRAINYYRFLVGFLFPICLLLASYQGILRAVRRSHGTQKSRKDQIQRLVLSTVVIFLACFLPYHVLLLVRSVWEASCDFAKGVFNAYHFSLLLTSFNCVADPVLYCFVSETTHRDLARLRGACLAFLTCSRTGRAREAYPLGAPEASGKSGAQGEEPELLTKLHPAFQTPNSPGSGGFPTGRLA [D16T] | 1.18 | -0.306 | 1.45 | 1.19 | 1.43
MGNITADNSSMSCTISHTIHQTLAPVVYVTVLVVGFPANCLSLYFGYLQIKARNELGVYLCNLTVADLFYICSLPFWLQYVLQHDNWSHGDLSCQVCGILLYENIYISVGFLCCISVDRYLAVAHPFRFHQFRTLKAAVGVSVVIWAKELLTSIYFLMHEEVIEDENQHRVCFEHYPIQAWQRAINYYRFLVGFLFPICLLLASYQGILRAVRRSHGTQKSRKDQIQRLVLSTVVIFLACFLPYHVLLLVRSVWEASCDFAKGVFNAYHFSLLLTSFNCVADPVLYCFVSETTHRDLARLRGACLAFLTCSRTGRAREAYPLGAPEASGKSGAQGEEPELLTKLHPAFQTPNSPGSGGFPTGRLA [D16S] | 0.387 | -0.372 | 0.098 | -0.744 | 0.739
MGNITADNSSMSCTIRHTIHQTLAPVVYVTVLVVGFPANCLSLYFGYLQIKARNELGVYLCNLTVADLFYICSLPFWLQYVLQHDNWSHGDLSCQVCGILLYENIYISVGFLCCISVDRYLAVAHPFRFHQFRTLKAAVGVSVVIWAKELLTSIYFLMHEEVIEDENQHRVCFEHYPIQAWQRAINYYRFLVGFLFPICLLLASYQGILRAVRRSHGTQKSRKDQIQRLVLSTVVIFLACFLPYHVLLLVRSVWEASCDFAKGVFNAYHFSLLLTSFNCVADPVLYCFVSETTHRDLARLRGACLAFLTCSRTGRAREAYPLGAPEASGKSGAQGEEPELLTKLHPAFQTPNSPGSGGFPTGRLA [D16R] | 0.299 | 0.147 | -0.064 | -0.632 | 0.428
MGNITADNSSMSCTIVHTIHQTLAPVVYVTVLVVGFPANCLSLYFGYLQIKARNELGVYLCNLTVADLFYICSLPFWLQYVLQHDNWSHGDLSCQVCGILLYENIYISVGFLCCISVDRYLAVAHPFRFHQFRTLKAAVGVSVVIWAKELLTSIYFLMHEEVIEDENQHRVCFEHYPIQAWQRAINYYRFLVGFLFPICLLLASYQGILRAVRRSHGTQKSRKDQIQRLVLSTVVIFLACFLPYHVLLLVRSVWEASCDFAKGVFNAYHFSLLLTSFNCVADPVLYCFVSETTHRDLARLRGACLAFLTCSRTGRAREAYPLGAPEASGKSGAQGEEPELLTKLHPAFQTPNSPGSGGFPTGRLA [D16V] | 0.203 | -0.435 | 0.083 | -0.363 | 0.111
